In patent publication US7943340B2, “Fungal dipeptidyl peptidase IV (DPPIV) enzyme for reagent use” (priority 2003, dated 2011):

System: desMet-G-CSF
Test: Digestion of desMet-G-CSF with DPPIV
Conditions: overnight 37° C., E/S 1/20 (w:w)
Description: The freeze-dried material was suspended at a 1 mg/ml concentration in 50 mM Tris-HCl, pH 7.5 containing 0.1% Sarcosyl and incubated overnight at 37° C. with DPPIV at an E/S ratio of 1/20 (w:w). The protein was isolated by RP-HPLC as before and characterized by ESI-MS (FIGS. 13A and B).

## ruDPPIV: T. rubrum dipeptidylpeptidase IV, 775 amino acid residues (SEQ ID NO: 35)
  cleavage of N-terminal dipeptide from desMet-G-CSF: cleavage of the N-terminal dipeptide Thr-Pro
